# Assay results reported in the RNAGym collection of RNA variant scans (doi:10.1093/nar/gkz1192).
# The source gives no read counts; variants with many changes may rest on few reads.
# B1: CPEB3 Ribozyme (parent)
# chain: UAACAGGGGGCCACAGCAGAAGCGUUCACGUCGCAGCCCCUGUCAGAUUCUGGUGAAUCUGCGAAUUCUGCUGUAUAUCUC
# Variants of: B1
# Experiment: self-cleavage, relative activity (ratio to wild type); higher = more cleavage; in vitro, sequencing
# In short: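 CPEB3 self-cleaving ribozyme mutant libraries were made by rounds of error-prone PCR, barcoded, and transcribed in vitro with T7 RNA polymerase for 5 hours at 37°C. Cleavage occurred during transcription and a 15 min DNase I step before EDTA stop. RNAs were reverse transcribed with template switching and Illumina-sequenced, with DNA sequencing mapping barcodes to variants. Relative activity is the variant's cleaved/total read fraction divided by wild type's (minimum 5 reads), averaged across three batches.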
row,Variant,self-cleavage
1,UAACAGGUGGCCACAGCAGAGGAGUUCACGACGCAGCCCCUGUCAGAUUCUGGUGAAUCUGCGAAUUCUGCUGUAUAUCUC,0.16
2,UAACAGGUGGCCUCAGCAGAAGCGUUCAUGUCGCAGCCCCAGUCAGAUUCUGGUGAAUCUGCGAAUACUGCUGUAUUUCUC,0.13
3,UAACAGGUGGCCUCAGCAGAAGCGCUCACGUCGCAGCCCCUGACAGAUUCUGGUGGAUCUCCGAAUUCUGCCGUAUAUCUC,0.11
4,UAACAGGUGGCCACAGCGGAAGCGGUCGCGUCGCAGCCCCUGUCAGAUUCUGGUGAAUCUGCGAAUUCUGCUGUAUGUCUC,0.17
5,UAACAGGUGGCCACAGCAGUAGCGUACACGUCGCAGCCCCUGUCAGACUCUGGUGAAUCUGCGAAUACUGCUGUAUAUCUC,0.05
6,UAACAGGUGGCCUCAGCAGAAGCGUUCACGUCGCAGCCCCUGUCGGAUUCUGGUGAAUCUGCGAAUUCUGCCGUAUAUCUC,0.07
7,UAACAGGUGGCCACAGCAGAGGCUCCCACGUCGCAGCCCCUGUCAGAUUCUGGUGAACCUGCGAAUUCUGCUGUAUAUCUC,0.03
8,UAACAGGUGGCCACAGCAGAGGAGUUCACGUCGCAGCCCCUGUCUGAUUCUGGUGAAUCUGCGAAUUCAGCUGUAUAUCUC,0.05
9,UAACAGGUGGCCACAGCAGGAGCGUUCACGUCGCAGCCCCUGUCAGAUUCUGGUGAAUCUGCGGACUCUGCUGUUUAUCUC,0.05
10,UAACAGGUGGCCACAGCAGACGCGUUCACGUCGCAGCCCCUGUCAGAUCCUGGUGAAUCUGCGAAUUCUGCUGUAUAUCUC,0.04
11,UAACAGGUGGCCACAGCAGUAGCGUUCACGACGCAGCCCCCGUCAGAUUCUGGUGAGUCUGCGAGUCCUGCUGUAUAUCUC,0.03
12,UAACAGGUGGCCACAGCAGGAGCGUUCAGGUCGCAGCCCCUGUCAGACUCUGGUGGAUCUGCGAAUCCUGCUGUAUAUCUC,0.11
13,UAACAGGUGGCCACGGCAGGAGCGUCCACGUCGCAGCCCCCGUCAGAUUCUGGUGAAUCUGCGGAUCCUGCUGUAUAUCUC,0.23
14,UAACAGGUGGCCUCAGCAGAAGCGUUCACGUCGCAGCCCCUGUCAGAUUCUGGUGAAUCUGCGAAUUCAGCUGUAUAUCUC,0.24
15,UAACAGGUGGCCACAGCAGAGGAGUUCACGUCGCAGCCCCUGUCAGAUUCUGGCGAAUCUGCGAAUACAGCUGUAUAUCUC,0.04
16,UAACAGGUGGCCACAGCAGAGGAGGUCACGUCGCAGCCCCUGUCAGAUUCUGGUGAAUCUGCGAAUUCAGCUGUAUAUCUC,0.05
17,UAACAGGUGGCCACAGCGGAAGCGUUCACGUCGCAGCCCCUGUCAGAUUCUGGUGAAUCUGCUGAUUCUGCUGUGUAUCUC,0.05
18,UAACAGGUGGCCACAGCAGGGGCGUUCACGUCGCAGCCCCUGUCAGAUUCUGGUGGAUCUGCGAAUUCUGCUGUAUAUCCC,0.31
19,UAACAGGUGGCCACGGCAGAAGCGUUCACGUCGCAGCCCCUGUCAGAUUCUGGUGAAUCUGCGAAUUCUGCAGUAUAUCUC,0.05
20,UAACAGGUGGCCACAGCAGAGGAGUUCACGUCGCAGCCCCUGACAGAUUCUGGUGAAUCUGCGAAUUCAGCUGUAUAUCUC,0.17
21,UAACAGGUGGCCACUGCAGAAGCGUUCACGUCGCAGCCCCUGACGGACUCUGGUGGAUCUGCGAAUUCUGCUGUAUAUCUC,0.03
22,UAACAGGUGGCCACCGCAGAAGCGUUCACGUCGCAGCCCCUGUCAGAUUCUGGUGGAUCUGCGAAUUCUGCUGUAUAUCGC,0.14
23,UAACAGGUGGCCACAGCAGAGGCGUUCGCGUCGCAGCCCCUGUCAGAUUCUGGAGAAUCCGAGAAUUCUGCUGAAUAUCUC,0.16

row,Variant,self-cleavage
1,UAACAGGUGGCCACGGCGGAAGCGUUCACGUCGCAGCCCCAGUCAGAUUCUGGUGAAUCUGCGAAUUCUGCUGUAUAUCCC,0.08
2,UAACAGGUGGCCACAGCUGUAGCGCUCACGUCGCAGCCCCUGUCAGUUUCUGGUGAAUCUGCGAAUUCUGCUGUAUAUCUC,0.05
3,UAACAGGUGGCCACAGCGGAUGCGUUCACGUCGCAGCCCCUGUCAGAUCCUGGCGUAUCUGCGAAUUCCGCUGUAUAUCUC,0.17
4,UAACAGGUGGCCACAGCAGAGGCGUUCACGUCGCAGUCCCUGUCAGAUUCUGGAGAAUCUGCGACUUCUGCUGUAUACCUC,0.09
5,UAACAGGUGGCCUCAGCAGAAGCGUUCACGUCGCAGCCCCUGUCUGAUUCUGGUGAAUCAGCGAAUUCUGCUGUAUAUCUC,0.08
6,UAACAGGUGGCCACGGCAGAAGCGCUCACGACGCAGCCCCAGUCAGAUUCAGGUGAAUCUGCGAAUUCUGCGGUAUAUCUC,0.03
7,UAACAGGUGGCCACGGCCGAAGCGCUCACGACGCAGCCCCUGUCAGAUUCUGGUGAAUCUGCGAAUUCUGCUGUAUAUCUC,0.35
8,UAACAGGUGGCCACAGCAGAGGAGUUCACGUCGCAGCCCCUGUCAGAUUCUGGUGAAUCCGCGAAUUCAGCUGUAUAUCUC,0.04
9,UAACAGGUGGCCACGGCAGAAGCGUUCACGUCGCAGCCCCUGUCAAAUUCUGGUGGAUCUGCGAAUUCUGCAGUAUAUCUC,0.32
10,UAACAGGUGGCCACGGCAGAAGCGCUCACGACGCAGCCCCUGUCAGAUUCUGGUGAAUCUGCGAAUUCUGCUGUAUAUCUC,0.22
11,UAACAGGUGGCCACAGCAGGAGCGUUCACGCCGCAGCCCCCGUCAGAUUCUGGUGAAUCUGCGAAUUCUGCUGUAUAUCUC,0.24
12,UAACAGGUGGCCACAGCAGAGGCGUUCACGUCGCGGCCCCUGUCAGAUUCUGAUGAAUCUGCGAAUUCUGCUGUAUAUCUC,0.11
13,UAACAGGUGGCCACUGCAGAAGCGUUCACGUCGCAGCCCCUGUCAGAUUCCGGUGAAUCUGCGAAUUCUGCCGUAUAUCUC,0.2
14,UAACAGGUGGCCUCAGCAGAAGCGUUCACGUCUCAGCCCCUGUCAGAUUCUGGUGAUUCAGCGAAUUCUGCUGUAUAACUC,0.05
15,UAACAGGUGGCCACAGCUGAAGCGUUCACGUCGCAGCCCCUGUCAGAUUCUGGUGAAUCCGCGAAUUCUGCUGUAUAUCUC,0.12
16,UAACAGGUGGCCUCAGCAGAAGCGUUCACGUCGCAGCCCCUGUCAGAUUCUGGUGAAUCUGCGAAUUCUGCCGUAUAUCUC,0.08
17,UAACAGGUGGCCACAGCAGAGGCGUUCACGUCGUAGCCCCUGUCAGAUUCUGGUGAAUCUGCGAAUUCAGCUGUAUAUCUC,0.06
18,UAACAGGUGGCCACAGCAGGAGCGUUCACGUCGAAGCCCCAGUCAGAUUCUGGUGAAUCUGCGAAUUCUGCUGUAUGUCCC,0.03
19,UAACAGGUGGCCACAGCUGAAGCGUUCACGUCGCAGCCCCUGCCUGAUUCUGGUGAAUCUGCGAAUUCUGCUGUAUAUCUC,0.06
20,UAACAGGUGGCCACUGCAGAAGCGCUCACGUCGCAGCCCCUGUCAGAUUCUGGUGAAUCUGCGAAUUCUGCUGUAUAUCUC,0.16
21,UAACAGGUGGCCACAGCAGAGGCGUUCACGUCGCAGCCCCUGUCAGAUUCUGGUGAAUCUGCGAAUCCUGCUGUAUAUCUC,0.14
22,UAACAGGUGGCCACAGCGGAUGCGUUCACGUCGCAGCCCCUGUCAGAUUCUGGCGAAUCUGCGAAUUCCGCUGUAUAUCUC,0.1
23,UAACAGGUGGCCACAGCCGAAGGGUUCACGUCACAGCUCCUGUCAGAUUCUGGUGUAUCUGCGGAUUCUGCUGUAUAUCUC,0.03

row,Variant,self-cleavage
1,UAACAGGUGGCCACAGCAGAGGCGUUCACGUCGCAGCCCCUGUCAGGUUCUGGUGAAUCUGCGAAUCCUGCAGUACAUCUC,0.03
2,UAACAGGUGGCCACAGCGGAAGCGUUCACGUCGCAGCCCCUGUCAGAUUCUGGUGAAUCUGCGAAUUCUGCUGUAUAUCCC,0.08
3,UAACAGGUGGCCACAGCAGUAGCGUUCACGUCCCAGCCCCUGUCAGAUUCUGGUGAAUCUGCGAAUUCUGCCGUAUAUCUC,0.04
4,UAACAGGUGGCCACAGCUGAAGCGUUCACGUCGCUGCCCCUGUCAGAUUCUAGUGAAUCUGCGAAUUCUGCUGUAUACCUC,0.05
5,UAACAGGUGGCCACGGCAGAAGCGCUCACGACGCAGCCCCUGUCAGAUUCCGGUGAAUCUGCGAAUUCUGCUGUAUAUCUC,0.04
6,UAACAGGUGGCCACAGCUGAAGCGUUCACGUCGCAGCCCCUGUCAGAAUCUGGUGAAUCAGCGUAUUCUGCUGUAUAUCUC,0.07
7,UAACAGGUGGCCACUGCAGAAGCGUUCACGUCGCAGCCUCUGUCAGAUUCUGGUGAAUCUGCGAAGUCUGCUGCAUAUCUC,0.09
8,UAACAGGUGGCCACAGCGGAAGCGUUCACGACGCAGCCCCUGACAGUUUCUGGUGAAUCUGCGAAUUCUGCUGUAUAUCUC,0.03
9,UAACAGGUGGCCACCGCAGAUGCGUUCACGUCGCAGCCCCUGUGAGAUUCUGGUGGAUCUGCGAUUUCUGCUGGAUAUCUC,0.04
10,UAACAGGUGGCCACAGCAGGAGCGAUCACGACGCAGCCCCUGUCAGAUUCUGGUGAACCUGCGAAUUCUGCUGUAUAUCUC,0.06
11,UAACAGGUGGCCUCAGCAGAAGCGUUCACGCCGCAGCCCCUGUCAGAUUCCGGUGAAUCUGGGAAUUCUGCUGCAUAUCUC,0.04
12,UAACAGGUGGCCACAGCAGAGGAGUUCACGUCGCAGCCCCUGUCAGAUUCUGGUGAAUCUGCGAAUUCAGCUGUAUAUCUC,0.11
13,UAACAGGUGGCCACAGCUGAAGCGUUCACGUCGCAGCCCCUGUCAGAUACUGGUGAAUCUGCGAAUUCUGCGGUAUAUCUU,0.07
14,UAACAGGUGGCCACAGCAGUAGCGCUCCCGUCGCAGCCCCUGUCAGAUUCUGGUGAAUCUGCGAAUUCUGCUGCUUAUCUC,0.05
15,UAACAGGUGGCCACAGCUGAAGCGUCCAUGUCGCAGCCCCUGUCAGACUCUGGUGAAUCUGCGAAUUCAGCUGUAUAUCUC,0.08
16,UAACAGGUGGCCACAGCAGAGGCGUUCACGUCGCAGCCCCUGUCAGAUCCUGGUGAAUCUGCGAAUUCUGCUGUAUAUCUC,0.2
17,UAACAGGUGGCCACAGCGGAAGCGUUCACGUCGCAGCCCCUGUCUGAUUCUGGUGAAUCUGCGGAUUCUGCUGUAUAUCUC,0.15
18,UAACAGGUGGCCACUGCAGAAGCGUUCGCGUCGCAGCCCCUGUCAGAUUCCGGUGAAUCUGCGAAUUCUGCUGUUUAUCUC,0.05
19,UAACAGGUGGCCACAGCGGAAGCGCUCACGUCGCAGCCCCUGUCAGAUUCUGGUGAAUCUGCGAAUUCUGCCGUAUAUCUC,0.06
20,UAACAGGUGGCCACGGCAGAAGCGUUCACAUCACAGCCCCUGACAGAUUCUGGUGAAUCUGCGAACUCUGCUGUAUAUCUC,0.08
21,UAACAGGUGGCCACAGCUGAAGCGUUCACGUCACAGCCCCUGUCAGAUCCUGGUGUGGCUGCGAAUUCUGCUGUAUAUCUC,0.05
22,UAACAGGUGGCCACAGCCGGAGCGCUCACGUCGCAGCCCCCGUCAGAUUCUGGUGAAUCUGCGAAUUCUGCUGUAUGUCUC,0.05
